Measurements taken from the antibiotic and cytotoxicity screens of Wong et al. (2023).
The other results are listed elsewhere or left out.

Key:
[1] = system: HSkMC (human skeletal muscle cells); experiment: cytotoxicity call (relative viability < 0.9); conditions: 10 µM
[2] = system: HepG2; experiment: cytotoxicity call (relative viability < 0.9); conditions: 10 µM
[3] = system: S. aureus RN4220; experiment: growth inhibition call (relative growth <= 0.2); conditions: 50 µM

Row | SMILES | cytotoxicity call [1] | cytotoxicity call [2] | growth inhibition call [3]
1 | CC1C(=O)CCC1=O | inactive | inactive | inactive
2 | CON=C(C(=O)NC1C(=O)N2C(C(=O)O)=C(C[N+]3(C)CCCC3)CSC12)c1csc(N)n1.[Cl-] (stereo unspecified) | inactive | inactive | active
3 | COCC(=O)Nc1ccc2c(c1)C(=O)N(C)C[C@H](OC)[C@@H](C)CN(C(=O)Cc1ccccn1)[C@H](C)CO2 | inactive | active | inactive
4 | CN1C(=O)c2cc(NC(=O)c3cnccn3)ccc2OC[C@H]2O[C@H](CC(=O)N[C@H]3CCN(Cc4ccccc4)C3)CC[C@@H]21 | inactive | inactive | inactive
5 | CN(C)CCOc1ccc([N+](=O)[O-])cn1 | inactive | inactive | inactive
6 | O=C(NCCN1CCCC1)[C@@H]1[C@@H](CO)[C@@H]2Cn3c(cccc3=O)[C@@H]2N1C(=O)c1ccccc1 | inactive | inactive | inactive
7 | C[C@]12CC3CC(N)(C1)C[C@@](C)(C3)C2 | inactive | inactive | inactive
8 | Cc1ccc(-c2ccc3c(c2)O[C@H](CN(C)Cc2cncnc2)[C@@H](C)CN([C@@H](C)CO)S3(=O)=O)cc1 | inactive | inactive | inactive
9 | O=C1COC2(CCN(C(=O)c3ccno3)CC2)CN1 | inactive | inactive | inactive
10 | C[C@@H]1CN([C@H](C)CO)C(=O)Cc2cc(NS(=O)(=O)c3cn(C)cn3)ccc2O[C@H]1CN(C)CC1CCCCC1 | inactive | inactive | inactive
11 | C[C@H](CO)N1C[C@H](C)[C@@H](CN(C)C(=O)Nc2ccc(C(F)(F)F)cc2)Oc2c(NC(=O)c3nc4ccccc4s3)cccc2C1=O | inactive | inactive | inactive
12 | CCN(CC)C(=O)[C@@H]1C[C@@H](N)CN1S(=O)(=O)N1CCCCCC1 | inactive | inactive | inactive
13 | O=C(C[C@@H]1CC[C@H]2[C@@H](COC[C@@H](O)CN2S(=O)(=O)c2ccc(Cl)cc2)O1)N[C@H]1CCN(Cc2ccccc2)C1 | inactive | inactive | inactive
14 | C[C@H]1CN([C@@H](C)CO)C(=O)Cc2cc(NC(=O)Nc3ccc(F)cc3)ccc2O[C@H]1CN(C)Cc1ccc(Oc2ccccc2)cc1 | active | active | inactive
15 | O=C(NCC(F)(F)F)[C@@H]1[C@@H](CO)[C@@H]2Cn3c(cccc3=O)[C@@H]2N1C(=O)C1CCC1 | inactive | inactive | inactive
16 | CO[C@@H]1CN(C)C(=O)c2ccc(NS(C)(=O)=O)cc2OC[C@H](C)N(C(=O)C2CCCCC2)C[C@@H]1C | inactive | inactive | inactive
17 | Cc1noc(C)c1NC(=O)N(C)C[C@@H]1Oc2ncc(C#CCC(C)C)cc2C(=O)N([C@@H](C)CO)C[C@H]1C | inactive | inactive | inactive
18 | Cc1ccc(S(=O)(=O)N(C)C[C@@H]2OCCCC[C@@H](C)Oc3ccc(NC(=O)CCCCCC(=O)Nc4ccccc4N)cc3C(=O)N([C@H](C)CO)C[C@@H]2C)cc1 | inactive | inactive | inactive
19 | Cc1ccc(S(=O)(=O)N(C)C[C@@H]2Oc3ccc(NC(=O)CCCN(C)C)cc3C(=O)N([C@H](C)CO)C[C@H]2C)cc1 | inactive | inactive | inactive
20 | CCN1C[C@]23CN(C(=O)c4cnccn4)C[C@@H](C[C@H]2S1(=O)=O)O3 | inactive | inactive | inactive
21 | C[C@@H]1CN([C@@H](C)CO)C(=O)c2cc(NC(=O)Cc3ccccc3)ccc2O[C@@H](C)CCCCO[C@@H]1CN(C)C(=O)NC1CCCCC1 | inactive | inactive | inactive
22 | C[C@H](CO)N1C[C@H](C)[C@@H](CN(C)C(=O)CCC(F)(F)F)OCCCC[C@H](C)Oc2ccc(NS(=O)(=O)c3ccccc3)cc2C1=O | inactive | inactive | inactive
23 | O=C(NC1=C(c2ccc(OC(F)(F)F)cc2)C(=O)c2ccccc2C1=O)c1ccc(Br)cc1 | inactive | inactive | inactive
24 | CO[C@H]1CN(C)C(=O)c2cc(NS(=O)(=O)c3cn(C)cn3)ccc2OC[C@@H](C)N(CC2CC2)C[C@H]1C | inactive | inactive | inactive
25 | CO[C@H]1CN(C)C(=O)c2cc(NC(=O)Nc3cccc(Cl)c3)ccc2OC[C@@H](C)N(C(=O)Nc2c(C)noc2C)C[C@H]1C | inactive | inactive | inactive
26 | C[C@@H]1CN([C@H](C)CO)C(=O)c2cc(NC(=O)C3CC3)ccc2O[C@@H]1CN(C)S(=O)(=O)c1ccc(F)cc1 | inactive | inactive | inactive
27 | COc1ccc(NC(=O)N(C)C[C@H]2OCCCC[C@H](C)Oc3ccc(NC(=O)CCC(F)(F)F)cc3C(=O)N([C@H](C)CO)C[C@@H]2C)cc1 | inactive | inactive | inactive
